The text below walks through data of US20230272055A1, “ANTI-MUTANT CALRETICULIN (CALR) ANTIBODIES AND USES THEREOF” (Incyte Corporation, priority 2021, published 2023).

Assay [1] concerns the target T1, recombinant MBP-mutCALR Type 1 fusion protein (Homo sapiens, UniProt P27797, DEL40-40).
T1 construct: His6 (N); purchased Cepter (cepterbiopartners.com), custom made
Briefly: Biacore SPR binding kinetics, Experiment 1. To be noted: Biacore 8K, 25° C., 1:1 binding model. A general note: SPR reads the build-up and loss of mass on a sensor chip optically.

Assay [2] deals with MPL-mutCALR cells (BaF3 cells stably expressing human MPL and human mutCALR). Briefly: Flow cytometry binding to cell surface MPL and mutCALR (GMFI, four parameter fit). The note with it: four parameter curve fitting. As for the experimental part: To assess binding of CALR antibodies to cell surface CALR, parental BaF3 (DSMZ) cells or BaF3 cells stably expressing only human MPL or both human MPL (Uniprot Number: P40238-1) and human mutCALR Type 1 and Type 2 were used. On the day of the assay, cells were washed and resuspended in assay buffer. Approximately 200,000 cells/well were added to 96-well plates and stained with the indicated concentration of antibodies for 30 minutes on ice. Cells were then washed and stained with goat anti-human secondary conjugated to R-phycoerythrin (R-PE) (Jackson Immuno Research Laboratories) for 30 minutes on ice. The cells were then washed and analyzed by flow cytometry. Geometric Mean Fluorescence Intensity (GMFI) of cell binding was graphed and EC50, hill slope, and area under the curve (AUC) were determined after four parameter curve fitting using GraphPad Prism Software (version 7.04).
(A flow cytometer gives signals particle by particle.)

The subject of assay [3] is Ba/F3 cells transfected with MPL and mutCALR Type 1. The assay is described as follows: Inhibition of cell proliferation, CellTiter-Glo 72 hours, mutCALR Type 1. It counts as cell-based. The note with it: Ba/F3 engineered cells, high-throughput primary screening. Summed up: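 Anti-mutCALR antibodies were added to engineered Ba/F3 cells (MPL with Type 1 or Type 2 mutCALR; 5,000/well, RPMI 1640, 2% FBS). Proliferation was scored as CellTiter-Glo luminescent viability following a 72 h incubation.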
In general terms: Cellular ATP, detected with luciferase, serves as a proxy for viable cell number.

Assay [4] has as its target T1, recombinant MBP-mutCALR Type 1 fusion protein. Briefly: Biacore SPR binding kinetics, Experiment 2 (parental and variant antibodies). The note with it: Biacore 8K, 25° C., 1:1 binding model.
Assay [5] has as its target T2, MPL dimerization in HAP1 cells transfected with MPL-LgBiT, MPL-smBiT, human JAK2 and mutant CALR Type 1 (Homo sapiens, UniProt P27797).
T2 construct: the full-length WT or mutant CALR Type 1 protein (full-length cds cloned into the pD2529 vector, ATUM Bio); expressed in transfected cells; host or cells: HAP1 cells knocked out for human JAK2 (Horizon Discovery, Ltd.), transient transfection
T2 sequence (P27797 with tags, fused parts or gaps): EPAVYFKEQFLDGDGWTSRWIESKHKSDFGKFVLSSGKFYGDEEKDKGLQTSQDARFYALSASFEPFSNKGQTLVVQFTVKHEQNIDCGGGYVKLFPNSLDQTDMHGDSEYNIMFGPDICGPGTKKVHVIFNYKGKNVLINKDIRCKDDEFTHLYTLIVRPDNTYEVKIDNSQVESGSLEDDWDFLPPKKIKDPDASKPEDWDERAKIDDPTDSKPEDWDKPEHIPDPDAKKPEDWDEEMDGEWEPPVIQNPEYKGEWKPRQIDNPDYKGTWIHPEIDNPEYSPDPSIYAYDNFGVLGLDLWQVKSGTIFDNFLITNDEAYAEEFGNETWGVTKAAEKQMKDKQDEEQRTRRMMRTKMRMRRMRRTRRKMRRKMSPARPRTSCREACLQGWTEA
The assay is described as follows: Inhibition of MPL dimerization (MPL-LgBiT/MPL-smBiT luminescence). It counts as cell-based. To be noted: percent inhibition compared to isotype control; FIGS. 4A-4G. The method, then:
Inhibition of MPL dimerization was tested as a potential mechanism of action of the anti-mutCALR antibodies. HAP1 cells knocked out for human JAK2 (Horizon Discovery, Ltd.) were transiently transfected with vectors encoding the MPL-LgBiT and MPL-smBiT fusion proteins (Promega Corp.). Also included in the transfection were vectors encoding the full-length human JAK2 and the full-length WT or mutant CALR Type 1 protein (full-length cds cloned into the pD2529 vector, ATUM Bio). The cells were transfected in 96 well plates using Trans-IT 2020 reagent (Mirus Bio LLC) with equivalent amounts of each plasmid. Cells were then incubated at 37° C., 5% CO2. 6 hours post-transfection, antibodies were diluted into growth medium (IMDM, 10% FBS) and added to the cells at the indicated concentrations. The plates were incubated overnight and the growth medium was replaced with 100 μl OPTI-MEM I, no phenol red, containing the same concentrations of antibodies. After 1 hour at 37° C., 5% CO2, 25 μl NanoGlo Live Cell Reagent (Promega) was added to each well. Plates were returned to the incubator for 30 minutes before luminescence was read on a PHERAstar FSX (BMG Labtech). Data was analyzed using GraphPad PRISM Software (version 7.04) and expressed as percent inhibition compared to isotype control.
The amino acid sequences for the MPL-LgBiT and MPL-smBiT fusion proteins used in this Example are: […]

B1: 2 (antibody)
heavy: EVQLVQSGAEVKKPGASVKVSCKVSGYTLTELSMQWVRQAPGKGLEWMGGFDPDDGETMYAEKFQGRLTVTEDTSTDTVYMELRSLTSEDTALYFCATSPGYDFFDYWGQGTLVTVSSASTKGPSVFPLAPSSKSTSGGTAALGCLVKDYFPEPVTVSWNSGALTSGVHTFPAVLQSSGLYSLSSVVTVPSSSLGTQTYICNVNHKPSNTKVDKRV[omitted - human IgG1 Fc]
light: SYELTQPPSVSVAPGKTARITCGGDNIGSKSVHWYQQKPGQAPVLVVYDDSDRPSGIPERFSGSNSGNTATLTISRVEAGDEADYYCQVWDSSIDHLIFGGGTKVTVLGQPKAAPSVTLFPPSSEELQANKATLVCLISDFYPGAVTVAWKADSSPVKAGVETTTPSKQSNNKYAASSYLSLTPEQWKSHRSYSCQVTHEGSTVEKTVAPTECS
Turning to B1, in assay [1], the “ka” value came out at 1.63e+06 M⁻¹ s⁻¹ and the “kd” value stood at 0.0123 s⁻¹. In assay [2], the “MPL-mutCALR Hill Slope” value is on record as 0.38. Moreover, in assay [3], the “IC50 inhibition of cell proliferation” value was determined as 71.4 ng/mL.

B2: 55 (antibody)
heavy: EVQLVQSGAEVKKPGASVKVSCKVSGYTLTELSMQWVRQAPGKGLEWMGGFDPDDGETMYAEKFQGRLTVTEDTSTDTVYMELRSLTSEDTALYFCATSPGYDFFDYWGQGTLVTVSSASTKGPSVFPLAPSSKSTSGGTAALGCLVKDYFPEPVTVSWNSGALTSGVHTFPAVLQSSGLYSLSSVVTVPSSSLGTQTYICNVNHKPSNTKVDKRV[omitted - human IgG1 Fc with changes]
light: QSALTQPASVSGSPGQSITISCTGTSSDVGGYNYVSWYQQHPGKAPKLMIYEVSNRPSGVSNRFSGSNSGNTATLTINRVEAGDEADYYCQVWDSSNDLLIFGGGTKLTVLGQPKAAPSVTLFPPSSEELQANKATLVCLISDFYPGAVTVAWKADSSPVKAGVETTTPSKQSNNKYAASSYLSLTPEQWKSHRSYSCQVTHEGSTVEKTVAPTECS
Turning to B2, in assay [4], the “ka” value was found to be 5.32e+06 M⁻¹ s⁻¹ and the “kd” value was found to be 0.000911 s⁻¹. Besides, the “IC50 inhibition of cell proliferation” value in assay [3] was found to be 1.1 ng/mL. Further, in assay [5], the “inhibition of MPL dimerization” value is on record as “inhibit MPL dimerization”.

B3: 134 (antibody)
heavy: EVQLVQSGAEVKKPGASVKVSCKVSGYTLTELSMQWVRQAPGKGLEWMGGFDPDDGETMYAEKFQGRLTVTEDTSTDTVYMELRSLTSEDTALYFCATSPGYDFFDYWGQGTLVTVSSASTKGPSVFPLAPSSKSTSGGTAALGCLVKDYFPEPVTVSWNSGALTSGVHTFPAVLQSSGLYSLSSVVTVPSSSLGTQTYICNVNHKPSNTKVDKRV[omitted - human IgG1 Fc with changes]
light: SYVLTQPPSVSVAPGKTARITCGGDNIGSKSVHWYQQKPGQAPVLVVYDDSDRPSGIPERFSGSNSGNTATLTISRVEAGDEADYYCQVWDSSNDLLIFGGGTKLTVLGQPKAAPSVTLFPPSSEELQANKATLVCLISDFYPGAVTVAWKADSSPVKAGVETTTPSKQSNNKYAASSYLSLTPEQWKSHRSYSCQVTHEGSTVEKTVAPTECS
Turning to B3, in assay [4], the “ka” value came to 1.27e+06 M⁻¹ s⁻¹ and the “kd” value turned out to be 0.00142 s⁻¹. Also, the “IC50 inhibition of cell proliferation” value in assay [3] turned out to be 3.6 ng/mL. The “inhibition of MPL dimerization” value in assay [5] is on record as “inhibit MPL dimerization”.

B4: 188 (antibody)
heavy: EVQLVQSGAEVKKPGASVKVSCKVSGYTLTELSMQWVRQAPGKGLEWMGGFDPDEGETMYAEKFQGRLTVTEDTSTDTVYMELSSLRSEDTAVYFCATSPGYDFFDYWGQGTLVTVSSASTKGPSVFPLAPSSKSTSGGTAALGCLVKDYFPEPVTVSWNSGALTSGVHTFPAVLQSSGLYSLSSVVTVPSSSLGTQTYICNVNHKPSNTKVDKRV[omitted - human IgG1 Fc with changes]
light: SYVLTQPPSVSVAPGQTARITCGGSDIGDEIVHWYQQKPGQAPVLVVYDDSDRPSGIPERFSGSNSGNTATLTISRVEAGDEADYYCQVWDSSSDHLIFGGGTKLTVLGQPKAAPSVTLFPPSSEELQANKATLVCLISDFYPGAVTVAWKADSSPVKAGVETTTPSKQSNNKYAASSYLSLTPEQWKSHRSYSCQVTHEGSTVEKTVAPTECS
Turning to B4, in assay [4], the “ka” value came out at 732000 M⁻¹ s⁻¹ and the “kd” value turned out to be 0.00121 s⁻¹. The “IC50 inhibition of cell proliferation” value in assay [3] was found to be 4.6 ng/mL. In assay [5], the “inhibition of MPL dimerization” value is “inhibit MPL dimerization”.

B5: 184 (antibody)
heavy: EVQLVQSGAEVKKPGASVKVSCKVSGYTLTELSMQWVRQAPGKGLEWMGGFDPDDAETMYAEKFQGRLTVTEDTSTDTVYMELRSLTSEDTALYFCATSPGYDFFDYWGQGTLVTVSSASTKGPSVFPLAPSSKSTSGGTAALGCLVKDYFPEPVTVSWNSGALTSGVHTFPAVLQSSGLYSLSSVVTVPSSSLGTQTYICNVNHKPSNTKVDKRV[omitted - human IgG1 Fc with changes]
light: SYVLTQPPSVSVAPGQTARITCGGSDIGDEIVHWYQQKPGQAPVLVVYDDSDRPSGIPERFSGSNSGNTATLTISRVEAGDEADYYCQVWDSSSDHLIFGGGTKLTVLGQPKAAPSVTLFPPSSEELQANKATLVCLISDFYPGAVTVAWKADSSPVKAGVETTTPSKQSNNKYAASSYLSLTPEQWKSHRSYSCQVTHEGSTVEKTVAPTECS
Take B5: in assay [4], the “ka” value turned out to be 428000 M⁻¹ s⁻¹ and the “kd” value was 0.000673 s⁻¹. In assay [3], the “IC50 inhibition of cell proliferation” value is 1.9 ng/mL. For the same molecule, the “inhibition of MPL dimerization” value in assay [5] is “inhibit MPL dimerization”.

B6: 68 (antibody)
heavy: EVQLVQSGAEVKKPGASVKVSCKVSGYTLTELSMQWVRQAPGKGLEWMGGFDPDEGETMYAEKFQGRLTVTEDTSTDTVYMELRSLTSEDTALYFCATSPGYDFFDYWGQGTLVTVSSASTKGPSVFPLAPSSKSTSGGTAALGCLVKDYFPEPVTVSWNSGALTSGVHTFPAVLQSSGLYSLSSVVTVPSSSLGTQTYICNVNHKPSNTKVDKRV[omitted - human IgG1 Fc with changes]
light: SYVLTQPPSVSVAPGKTARITCTGTSSDVGGYNYVSWYQQKPGQAPVLVVYEVSNRPSGIPERFSGSNSGNTATLTISRVEAGDEADYYCQVWDSSNDLLIFGGGTKLTVLGQPKAAPSVTLFPPSSEELQANKATLVCLISDFYPGAVTVAWKADSSPVKAGVETTTPSKQSNNKYAASSYLSLTPEQWKSHRSYSCQVTHEGSTVEKTVAPTECS
For B6, in assay [4], the “ka” value stood at 1.44e+06 M⁻¹ s⁻¹ and the “kd” value was determined as 0.00166 s⁻¹. Moreover, the “IC50 inhibition of cell proliferation” value in assay [3] was 0.9 ng/mL. Moreover, the “inhibition of MPL dimerization” value in assay [5] was “inhibit MPL dimerization”.
